# The whole screen tested about 190,000 compounds, of which about 400 (0.21%) were called active. Inconclusive results, whose numbers are uncertain, are shown with a selection of clear calls.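 Rule for the calls: active = percent activity GTP binding at least 20 points away from the 100% baseline, either down as inhibitor or up as activator; inconclusive = compound flagged as likely green fluorescent from well-wide comparison; inactive = the rest.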
# Biological target: Cell division control protein 42 homolog (Homo sapiens) (UniProt P60953)
# UniProt P60953, sequence (P60953 whole entry, looked up): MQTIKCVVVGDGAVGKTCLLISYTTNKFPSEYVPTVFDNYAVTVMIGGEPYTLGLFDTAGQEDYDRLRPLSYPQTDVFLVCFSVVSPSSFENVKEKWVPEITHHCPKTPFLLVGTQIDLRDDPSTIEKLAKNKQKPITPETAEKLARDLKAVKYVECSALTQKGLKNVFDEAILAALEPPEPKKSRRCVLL
# Experiment: wildtype Cdc42 fluorescent GTP binding changes, either direction – biochemical, multiplex bead flow cytometry, Bodipy-GTP, primary screen (AID 761);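 note: median bead fluorescence of bound Bodipy-FL-GTP at 100 nM; 0% = excess unlabeled GTP control and 100% = no compound control; below 100% means less GTP binding so inhibitor and above means activator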
# Details: GST-Cdc42 beads, at 10 µM, actives lie on both sides
row,SMILES,percent activity (GTP binding)
1,CN(Cc1ccc(-n2cccn2)cc1)Cc1cn(C)nc1-c1ccccc1F,inconclusive: 95%
2,CCNCc1cc(OCC)c(OCC(=O)NCCc2ccccc2)cc1Cl,inconclusive: 110%
3,CCOc1ccc(C2=Nn3c(nnc3-c3ccco3)SC2)cc1,active: 77%
4,Cc1c(NS(=O)(=O)c2ccc3c(c2)n(C)c(=O)n3C)c(=O)n(-c2ccccc2)n1C,inactive: 104%
5,COc1ccc(Cl)cc1NC(=O)C/C(C)=N/NC(=O)Cc1ccccc1,inconclusive: 95%
6,C/C(=N\NC(=O)c1cccc(N/N=C(\C)c2cc(O)ccc2O)c1)c1cc(O)ccc1O,inconclusive: 81%
7,CC1Cc2ccccc2N1C(=S)NC(=O)C1(C)CC1(Cl)Cl (centres undefined),inconclusive: 96%
8,COC(=O)C(F)(F)Sc1c(C)[nH]c2ccccc12,inconclusive: 101%
9,Cc1ccc(NC(=O)c2ccccc2F)cc1S(=O)(=O)N1CCCCCC1,inconclusive: 91%
10,COC(=O)CN1C(=O)CC(C)(C)S(=O)c2ccccc21 (centres undefined),inconclusive: 104%
11,CC(C)Cc1nnc(NC(=O)CCC(=O)N2CCN(S(=O)(=O)c3ccccc3)CC2)s1,inconclusive: 102%
12,COc1ccc(OC)c(N2CC(O)(c3cccs3)[N+]3=C2SCCC3)c1 (centres undefined),inactive: 95%
13,Cn1c(N)c(C(=O)COC(=O)CCCOc2ccc(Cl)cc2Cl)c(=O)n(C)c1=O,inconclusive: 85%
14,COc1ccc(-c2cc(C(=O)Oc3ccc([N+](=O)[O-])cc3)c3ccccc3n2)cc1,inconclusive: 91%
15,Cc1cccc(C(=O)Oc2ccc(/C=N/O)cc2)c1,inconclusive: 103%
16,CCCCCCCn1c2c(c(=N)c3ccccc31)CCC2,inactive: 98%
17,CCCCOc1ccc(S(=O)(=O)NNC(=O)c2cc3ccccc3o2)cc1,inconclusive: 89%
18,CC(C)(C)c1ccc(CNc2cc(N3CCOCC3)ccc2[N+](=O)[O-])cc1,inconclusive: 94%
19,COc1ccc2c(c1)CC/C(=C/c1ccncc1)C2=O,inconclusive: 97%
20,O=C(Nc1nc2ccccc2[nH]1)c1ccc(Cl)c(S(=O)(=O)N2CCCC2)c1,inconclusive: 93%
21,Cc1c(N)cccc1-n1cccc1,inconclusive: 99%
22,CSc1nc(C)cc(SC(C(C)=O)C(=O)Nc2ccccc2)n1 (centres undefined),inconclusive: 96%
23,S=c1[nH]nc(-c2ccco2)n1-c1ccccc1Cl,active: 79%
24,NC(=S)N=Nc1c(O)[nH]c2c(Br)cc(Br)cc12,active: 75%

row,SMILES,percent activity (GTP binding)
1,CCS(=O)(=O)Nc1cccc(C(=O)CC2(O)C(=O)Nc3ccccc32)c1 (centres undefined),inconclusive: 102%
2,CCOC(=O)C1CCN(C(=O)c2cc3ccccc3oc2=O)CC1,inactive: 94%
3,CSc1ccccc1C(=O)Nc1nccs1,inconclusive: 105%
4,CCC(=O)Nc1ccc2c(c1)ncn2-c1ccccc1OC,inconclusive: 109%
5,Oc1c(C=Nc2ccccc2)sc(=S)n1Cc1ccccc1,inconclusive: 117%
6,Cc1cc(C(=O)OCC(=O)Nc2ccc(F)cc2F)c(C)o1,inconclusive: 103%
7,Cc1cccc(NC(=O)c2ccc(COc3cccc4ccccc34)o2)n1,inactive: 96%
8,O=C(Nc1cccnc1N1CCOCC1)c1ccco1,inconclusive: 99%
9,CC1CCCN(c2nc3nonc3nc2N2CCCC(C)C2)C1 (centres undefined),inactive: 101%
10,Cc1nc2nc(SCC(=O)N3CCOCC3)nn2c(C)c1Cc1ccccc1,inconclusive: 104%
11,O=C(CNC(=O)Cc1ccccc1)N=Nc1c(O)n(Cc2ccc3c(c2)OCO3)c2ccccc12,inactive: 90%
12,O=C(c1ccccc1)c1cccn1CC(=O)N1CCCCCC1,inconclusive: 103%
13,Nn1c(Cc2cccc3ccccc23)n[nH]c1=S,inconclusive: 97%
14,COC(=O)C1=CN(Cc2ccc(OC)c(OC)c2)C=C(C(=O)OC)C1c1cccs1,inactive: 99%
15,COCCNC(=O)c1ccc(C(=O)C(=O)c2ccccc2)cc1,inconclusive: 104%
16,CCOC(=O)N1CCN(C(=O)Cn2c(=O)sc3ccccc32)CC1,inconclusive: 104%
17,COc1ccccc1N1CCN(C(=O)c2ccc(C(C)(C)C)cc2)CC1,inconclusive: 106%
18,COc1ccc(OC2C(=O)N(Cc3ccc4c(c3)OCO4)C2c2sccc2C)cc1 (centres undefined),inconclusive: 102%
19,COc1ccc(N2C(=O)CN=C2Nc2nc(C)cc(C)n2)cc1OC,inconclusive: 107%
20,NC(=S)n1[nH]c(-c2ccc([N+](=O)[O-])cc2)c(N=Nc2cccc([N+](=O)[O-])c2)c1=O,inconclusive: 88%
21,O=c1cnc2cc([N+](=O)[O-])ccc2[nH]1,inactive: 93%
22,CC(=O)N1N=C(c2ccc3nccnc3c2)CC1c1ccccc1 (centres undefined),inconclusive: 111%
23,CCCN=C1CC(C)(C)CC(=O)/C1=C(/O)CCCN1C(=O)c2ccccc2C1=O,inconclusive: 95%
24,COc1cc(NS(C)(=O)=O)c(OC)cc1NC(=O)c1ccccc1,inconclusive: 104%

row,SMILES,percent activity (GTP binding)
1,Cc1cc(C)c(OCC(=O)Nc2nc3ccccc3[nH]2)c(C)c1,inconclusive: 92%
2,CC(=O)Nc1ccc(C2=NNC(=Nc3cccc(S(=O)(=O)N(C)C)c3)SC2)cc1,inconclusive: 90%
3,O=C(COC(=O)c1ccc(S(=O)(=O)N2CCCC2)cc1)NCc1ccccc1,inconclusive: 84%
4,Cc1ccc(NC(=O)Nc2ccnc(-c3cccnc3)n2)cc1,active: 65%
5,O=C(c1ccccc1F)c1cc2c(cc1[N+](=O)[O-])OCCO2,inactive: 93%
6,CN(Cc1ccccc1)S(=O)(=O)c1ccc(OCC(=O)Nc2cccc([N+](=O)[O-])c2)cc1,inconclusive: 102%
7,Cc1cccc(-n2c(C)cc(/C=C3\C(=N)N4N=C(CC(C)C)SC4=NC3=O)c2C)c1,inconclusive: 88%
8,O=C(NCc1ccc(Cl)cc1)c1cc([N+](=O)[O-])ccc1Cl,inactive: 100%
9,O=C(Cn1cnc2cc([N+](=O)[O-])ccc2c1=O)Nc1cccc(S(=O)(=O)N2CCOCC2)c1,inconclusive: 91%
10,O=C(CCCCCNC(=O)c1ccccc1)N=Nc1c(O)[nH]c2c(Br)cc(Br)cc12,inactive: 92%
11,CCOC(=O)C(C(=O)OCC)C(C)C#CCN1CCCCC1 (centres undefined),inconclusive: 107%
12,CCC(=O)N/C(=N/c1nc(C)cc(C)n1)Nc1cccc(OC)c1,inconclusive: 105%
13,CCOC(=O)C1CCCCN1Cc1cc(OC)ccc1OC (centres undefined),inconclusive: 107%
14,COCc1c(CCl)cnc(C)c1O,inconclusive: 93%
15,COc1cccc(-n2c(SCC(=O)NCCc3ccccc3)nnc2-c2ccoc2C)c1,inconclusive: 104%
16,O=C(N/N=C/c1cc2c3c(c1O)CCCN3CCC2)c1ccccc1O,inconclusive: 99%
17,COc1cccc(/C=N/Nc2ccc(C(=O)O)cc2)c1O,inactive: 96%
18,Cc1c2ccccc2nc2c(F)c(NCCO)c(F)c(F)c12,inconclusive: 99%
19,COc1ccc(-c2nc3ncccn3c2Br)cc1,inconclusive: 92%
20,COc1ccc(CCC(C)Nc2ccccc2F)cc1 (centres undefined),inconclusive: 108%
21,Cc1cc(NC(=O)C2CC2)n(-c2nc3ccccc3s2)n1,inconclusive: 93%
22,O=C(CSc1ncnc2c1cnn2-c1ccc(F)cc1)NCc1ccc2c(c1)OCO2,inconclusive: 95%
23,Oc1ccc(/C=N/NC(=S)N/N=C/c2ccc(O)cc2)cc1,inactive: 82%
24,COc1ccc(-n2c(NC(=O)c3ccc(Br)o3)c(C#N)c3nc4ccccc4nc32)cc1,active: 77%

row,SMILES,percent activity (GTP binding)
1,O=C(NNc1nc(-c2ccccc2)c2cc(Br)ccc2n1)c1ccc(S(=O)(=O)N2CCCCC2)cc1,inactive: 94%
2,CCOC(=O)Nc1nc(C)c(C(=O)c2ccc(Cl)cc2)s1,inconclusive: 107%
3,CCc1nnc(NC(=O)CCC(=O)N2CCN(c3ccccn3)CC2)s1,inconclusive: 32%
4,NC(=O)N=Nc1c(O)[nH]c2c(Br)cc(Br)cc12,active: 75%
5,Cc1cccc2nc(CSc3nc4ccccc4[nH]3)cn12,inconclusive: 96%
6,Fc1ccc(-n2nnc(-c3cnc4ccccc4c3)n2)cc1,inactive: 97%
7,CS(=O)(=O)c1ccc(Cl)c(NC(=O)c2ccc3ccccc3c2)c1,inactive: 103%
8,CN(/N=C/c1ccco1)C1=NS(=O)(=O)c2ccccc21,active: 71%
9,CC(C)OC(=O)CSc1nc(-c2ccc(F)cc2)nc2ccc(F)cc12,inconclusive: 109%
10,COc1cc(Cn2c(-c3nonc3N)nc3ccccc32)ccc1C,inconclusive: 92%
11,NC(=S)N=Nc1c(O)[nH]c2ccccc12,inactive: 92%
12,C/C(=C\c1ccccc1)CN1CCN(c2ccccc2F)CC1,inconclusive: 94%
13,CCOC(=O)N1CCC(=NNC(N)=O)CC1,inactive: 102%
14,CCOC(=O)N1CCN(c2cc(=O)n(-c3ccc(Br)cc3)c(=O)[nH]2)CC1,inconclusive: 106%
15,O=C(CNC(=O)c1ccccc1F)NCCOc1ccccc1Cl,inactive: 97%
16,CC(=O)Nc1nc(SCCCc2ccccc2)n[nH]1,inconclusive: 103%
17,CNC(=O)c1ccsc1NC(=O)CCS(=O)(=O)c1ccccc1,inconclusive: 97%
18,COc1ccc(OCCC(=O)NCC23CC4CC(CC(C4)C2)C3)cc1,inactive: 97%
19,COC(=O)c1cccc(NC(=O)Nc2ccc(Cl)c(Cl)c2)c1,inconclusive: 109%
20,CCC(C)(C)C1CCC(=NNS(=O)(=O)c2ccc(C)c([N+](=O)[O-])c2)CC1 (centres undefined),inconclusive: 94%
21,O=C1CN(C(=O)CSc2nc3ccccc3c(=O)n2Cc2ccc(F)cc2)c2ccccc2N1,inactive: 98%
22,Cc1nnc2sc(SCC(=O)Nc3cccc(Cl)c3)nn2c1=O,inactive: 96%

# Reference: PubChem BioAssay AID761 (NMMLSC, 2007)
